Data published in the supplement of paper PMC3334620.
In all, about 33,000 sequences were measured (“E-score (-0.5 to 0.5)”: median about -0.01, highest 2% from about 0.26 on). Some of the results follow.

These sequences were tested against Ste12 (UniProt P13574) (assay: PBM E-score (8-mer binding enrichment) (E-score (-0.5 to 0.5)); higher = stronger / more preferred TF binding; most listed sequences are background and not binding sites). Conditions: protein concentration: 200 nM; construct: GST-DNA-binding domain.
Method in brief: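 Yeast transcription factors, full-length or as DNA-binding domains, were expressed with a GST tag using PURExpress in vitro transcription/translation. At about 100-200 nM they were applied to universal all-10-mer Agilent arrays, double-stranded by primer extension on fresh or once-stripped slides. Fluorescent anti-GST detected bound protein, and masliner normalised the scans. E-scores for ungapped eight-base words, pooled with reverse complements, came from the Universal PBM Analysis Suite.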

Sequence	PBM E-score
CTGCACTC	-0.0811
AGACCCCG	0.0202
AGAGCCAT	-0.0204
GCCAGTCC	-0.143
AAATTTGG	0.12
ATAAGCGC	-0.0763
ATGAGTCC	-0.101
CAGTTCCG	0.0673
CTTGTCGA	-0.0997
ACTGTCCA	-0.231
CCAAGACG	-0.0185
CGTCTAAG	-0.0278
AGCTGGTC	-0.289
AACCTATA	0.105
CACACAGA	0.0585
GTTGTCTA	-0.128
ATCGACAG	0.00964
GGAGTAGA	-0.0759
ACGCGTAT	0.17
AGCCTAAG	-0.19
TATCGATA	-0.0905
ACCTGGAT	-0.275
CCGGATGA	0.0123
AAGCGTGA	-0.00615
AGCAAGCC	-0.108

Sequence	PBM E-score
CTCAGCGA	0.0458
CCTCGACC	0.0189
ACTCAAAG	0.123
CCACCCGG	-0.106
AACAAACT	0.205
CAAACGAA	0.101
ATGAGGTC	0.0263
AGTGGTCA	-0.0643
AACAGGTA	-0.0122
AATAGGCC	-0.221
CTAGTGGC	-0.132
AGACAAAC	0.0684
CGTCGAAC	-0.154
CTTTAATA	0.209
ACATGCAG	-0.107
CTACCGAG	-0.183
CGGACTAC	0.0321
CAGCAGGC	0.126
ACTTAGAG	-0.223
AGCGCAGG	-0.221
CGATCACG	-0.049
CGGCCACG	-0.0396
CGCGAAGC	-0.0448
ACAGTCTC	-0.0284
CAGGATTC	0.0783

Sequence	PBM E-score
GCACCTTA	-0.0909
TCCGCTCA	-0.00775
ATTGAAAC	0.398
GGGTTACA	0.0902
ACGTATTA	0.25
CACTCGTA	-0.202
GGAATTGA	0.241
ACTAATGA	0.155
GAGGGTAC	-0.112
AGGTGATC	0.0177
ACGTCCAT	-0.15
ATCCTACC	-0.143
CTCGCAGA	-0.118
AGCCGGTG	0.0856
AAGCATGT	-0.0917
GATAAAGC	-0.0494
CAGCGGTC	-0.0855
ACTTCCGG	0.0582
ACCTGAAA	0.257
AAGGGAGC	-0.0506
CCGGATCC	-0.135
CCCAGTCA	-0.15
ATTACTGG	-0.136
ACTATGTG	-0.0623
ACCTGACA	0.144

Sequence	PBM E-score
GGGTGTAC	-0.123
AGTACATG	0.0712
GTAGTCGA	-0.148
GACACTGC	-0.0993
CCATAACC	0.00458
TCGTCGCA	0.03
GAGCTGCC	-0.218
CGGAAAGA	0.142
CCAAACTA	0.0603
AACGAACT	-0.204
AAGGAGCA	-0.017
CACAATCC	0.05
CTCGACAG	-0.0552
ACTCACGA	-0.213
ATTTTTAG	0.175
CTGGTGTC	-0.113
AATCTCAT	0.165
CTAGGGGA	-0.303
CAGTCACA	0.0168
TATTACAA	0.173
ACAACGAG	-0.00789
ATGCGGTA	0.133
CCGTCTGC	-0.147
AAATGTCG	-0.0494
AGCCAAAT	0.116

Sequence	PBM E-score
AGCCAGGC	-0.18
TAGAACTA	-0.136
CGGCAATA	0.105
CCTACGTA	-0.121
CTGGATCA	-0.0476
AAATGGCG	0.0543
CGAATTCA	-0.0287
AGCAACGG	-0.0322
TGATCACA	-0.0662
AGCAATGA	-0.0773
GGAGTTCA	-0.0335
ACGATAGT	0.0548
CTGGGGGC	-0.233
ATCGGTTG	-0.0931
ATGAGGCG	-0.0853
ACATTACA	0.142
ACCAGTAA	0.0343
AAAGGCCA	-0.0459
AGCAACGC	-0.0943
ATAAGAAT	0.187
ATACGACA	-0.00383
AATTAACC	0.193
CATAGAGC	-0.14
AATGCACC	-0.0756
CTGGAAGC	-0.222

Sequence	PBM E-score
AAAGCTAT	0.0353
GAGGTTCC	-0.143
CCTCTTGC	0.0254
CTGAGGTC	-0.199
CAAGTGAC	-0.0247
CTGGGTTA	-0.0643
ACCCGGTA	0.0644
TGCTTGAA	0.103
GAACGCCA	-0.0811
ACTGACTC	-0.0849
GATCCATA	0.0894
CATTGTGA	-0.046
ACGGAGGA	-0.0906
CCACATTA	0.0273
CGCGAGTA	0.136
AACGACGG	0.0713
CCTCGGGC	-0.045
CTCACCTC	0.126
CTCCCCCA	-0.00505
CCAGGGGC	-0.229
ATCTGCTG	-0.292
ATATGCGA	0.11
GCGAACAC	-0.265
TAACTCAA	0.123
CCTTGCAG	-0.338

Sequence	PBM E-score
GATGACAA	0.00288
AGGCGCTC	-0.194
GGCCTCAC	-0.128
AAACTGTG	0.223
CTTTCAGA	0.211
AAGGCTGC	0.0866
TGCAGACA	-0.147
AAAAAGTC	0.219
AACGACAT	0.189
CAACGAGC	0.0152
AATCGTGC	0.0818
GTCCAAAA	0.123
TGAATCCA	0.156
CTGAACCA	0.0857
GACCATGA	0.0168
CTAGTCGA	-0.0403
ACCAGACA	-0.0629
CAGCTGAG	-0.024
CACTCCAG	-0.019
ACAGCAGC	0.0783
AGTAGTAT	0.0811
GGACGTAC	-0.174
AACTTGAT	0.151
CTATACCA	0.0746
CGAGTCAG	-0.119

Sequence	PBM E-score
CTAGGCGC	-0.154
AGTGAGAC	0.0658
TCATGGGA	-0.0265
GAAGTAAA	0.161
AATGCCTA	0.0216
ACTTACCT	-0.0503
CGCCAATA	0.036
CGACGGCG	-0.0199
TAGGCTCA	-0.15
CAGCACCA	-0.0901
GTTCTGAA	0.114
CGGAGCGC	0.0689
CTATACAA	-0.0712
TAATAATA	0.181
ATTGGTGC	0.0393
GCGGCGCA	-0.12
GAACAAGA	0.00666
GGTCCGGA	0.0768
CGATGTTC	0.0123
GGCAGCAC	-0.0772
CTTGGAAC	-0.105
CACAACTG	0.0283
AAATAGCC	-0.00727
CAGATCCG	-0.00451
CCTGCACC	-0.0794

Sequence	PBM E-score
GAAGTATA	0.0919
GAGCATGA	-0.0834
GCGTTCTA	-0.0704
AAAGATGG	0.00324
CATTATCC	0.143
CACGGTAC	-0.15
GCAAAGCC	-0.185
AAAACTAG	0.182
CCAGAACA	0.0595
ATCGTTTC	0.35
GAGGAGCA	-0.0496
CGGTCTAA	-0.0644
CGGGCGTA	-0.0442
TCTTGACA	-0.0432
ACTAAGTG	0.0621
ACCAGGAA	-0.00935
ACACCCCT	-0.0112
ACTAGCCT	0.0711
AACCTGGT	0.0596
CCCGCCCA	0.332
ACCAACAG	-0.042
ACCCCGCC	0.41
CAGCTCAC	-0.301
CTTTGTCC	0.0626
CAATCTGA	-0.00699

Sequence	PBM E-score
GTTCGGAA	0.097
GGCTAGGA	-0.0596
ACGTTAGT	-0.0471
CCCCTTCA	-0.0892
TCAGCACA	0.00131
ACGGATGA	-0.022
ATCCAGAT	0.0989
AAATGCTT	0.033
AATCCGCC	-0.0917
CCGATCGG	0.0195
CTCCATGC	-0.15
CGTCAGAA	-0.0833
CTCTTTCA	-0.00124
ACCTTCGT	-0.185
AGGGTGTG	0.0609
GAGTCGGC	0.0226
GGCAGACC	-0.246
AGTGGCGC	0.0832
GCGTACCA	-0.158
GGCCGGAA	-0.0707
CACAATAG	0.227
TAGCATAA	-0.0762
CAAACGTG	0.146
AACGTCGA	0.0936
GGCGCAGA	-0.0264

Sequence	PBM E-score
CTACAACC	-0.0441
ACATATGG	0.0801
ACGGTAGC	-0.229
CTCGCTTC	-0.142
ACGAGCGC	-0.0483
AATTTGGC	0.0552
AATTACGT	-0.0503
ATGTGATA	0.084
GCCTAAGC	-0.358
ACTGGAAG	-0.0981
GAACGCCC	-0.0696
ATCCCCCA	-0.0699
TAGGACTA	-0.0996
AAATCTTG	0.0896
CAGCTCTC	-0.199
CAGCAGTA	-0.0736
GCATTACC	-0.176
GACCGTAA	-0.00253
AGACGGAC	-0.178
AAGACGGG	-0.0214
CTTCGTTA	0.0185
CAGGTTAG	-0.0618
ATATCTAG	0.0193
CCGCTCCC	-0.164
AGACTCAC	-0.264

Sequence	PBM E-score
ATAAGTAT	0.042
ATTGAGGG	-0.124
AGGGTTTA	0.00108
TCTTTAAA	0.146
CAGCGCCA	-0.145
CAATTATC	0.231
GTAGCGAA	-0.126
CGCGTAAG	-0.0415
CGACACCA	-0.0428
ATTCGCCG	0.0635
ATTGGGGG	-0.233
AGCCGTAG	0.00545
GCCAGTAA	0.00676
ACATGTTC	-0.0966
ACAATAGA	-0.0136
CCATTGTC	-0.0322
AAGTGCGG	-0.0546
AAACATAG	0.205
ACTTCTAG	-0.0758
CGCACTCA	-0.065
CGATAGAG	-0.263
ATTCCAAA	0.167
TGACCACA	-0.222
GGCCGGCA	0.115
GCGTACGA	0.0364

Sequence	PBM E-score
TAATAGGA	-0.0788
ACTTTATG	0.149
CGTCTAGA	-0.174
GATGCCAA	-0.136
CGTGCTCA	-0.0374
CCACGACG	-0.0503
CTCCCACC	-0.051
CGTCAGGC	-0.174
GAGGCCGA	-0.0143
CCTATCGA	0.0224
CGGCCGCC	-0.0604
AATTGTGC	0.012
GAGGTTCA	0.0271
CGTACTTC	0.0278
ATAGGCAG	-0.00285
ACATATCG	0.0123
TACCCGAA	0.0635
CGCACCTA	-0.0159
ACAACAGA	-0.0413
ATGTGGTG	0.0839
CGTTATAG	0.00461
GCGGCTCA	0.0577
AAACCGAT	0.153
CAGCGGCC	-0.115
AACCCCCA	-0.196

Sequence	PBM E-score
CATTTCTC	0.146
TGAGAAAA	0.134
GCACTGCC	-0.00046
GAGACTGC	-0.0788
AAGGGGCG	-0.0232
AAGACCAA	-0.0551
GCGCTTCA	0.114
CGTTAAAG	0.0915
CGTGCTTC	0.133
CCACGTAG	-0.18
AAACTATG	-0.0101
ACGTTAAA	0.0806
CCCTGCGC	-0.0772
TCGTGTCA	0.0839
ACTGATTA	-0.0244
GCGCGTCC	-0.175
AGCCCAGA	-0.165
CCTAGCCG	-0.077
CTAAAAAC	0.023
